Assay results from paper PMC4336329 (PLoS ONE, 2015).
The campaign covered roughly 310,000 compounds. About 14,000 (4.5%) showed an effect of 50% or more. Effects have a minus sign here. This is one part of the list.

Target: human ether-à-go-go-related gene (hERG) potassium channel (human, UniProt Q12809)
Assay: primary screen, population patch clamp on CHO cells stably expressing hERG
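Note: peak tail current of the secondary pulse compared with the same well before compound.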

human ether-à-go-go-related gene (hERG) potassium channel, sequence (Q12809 whole entry, looked up): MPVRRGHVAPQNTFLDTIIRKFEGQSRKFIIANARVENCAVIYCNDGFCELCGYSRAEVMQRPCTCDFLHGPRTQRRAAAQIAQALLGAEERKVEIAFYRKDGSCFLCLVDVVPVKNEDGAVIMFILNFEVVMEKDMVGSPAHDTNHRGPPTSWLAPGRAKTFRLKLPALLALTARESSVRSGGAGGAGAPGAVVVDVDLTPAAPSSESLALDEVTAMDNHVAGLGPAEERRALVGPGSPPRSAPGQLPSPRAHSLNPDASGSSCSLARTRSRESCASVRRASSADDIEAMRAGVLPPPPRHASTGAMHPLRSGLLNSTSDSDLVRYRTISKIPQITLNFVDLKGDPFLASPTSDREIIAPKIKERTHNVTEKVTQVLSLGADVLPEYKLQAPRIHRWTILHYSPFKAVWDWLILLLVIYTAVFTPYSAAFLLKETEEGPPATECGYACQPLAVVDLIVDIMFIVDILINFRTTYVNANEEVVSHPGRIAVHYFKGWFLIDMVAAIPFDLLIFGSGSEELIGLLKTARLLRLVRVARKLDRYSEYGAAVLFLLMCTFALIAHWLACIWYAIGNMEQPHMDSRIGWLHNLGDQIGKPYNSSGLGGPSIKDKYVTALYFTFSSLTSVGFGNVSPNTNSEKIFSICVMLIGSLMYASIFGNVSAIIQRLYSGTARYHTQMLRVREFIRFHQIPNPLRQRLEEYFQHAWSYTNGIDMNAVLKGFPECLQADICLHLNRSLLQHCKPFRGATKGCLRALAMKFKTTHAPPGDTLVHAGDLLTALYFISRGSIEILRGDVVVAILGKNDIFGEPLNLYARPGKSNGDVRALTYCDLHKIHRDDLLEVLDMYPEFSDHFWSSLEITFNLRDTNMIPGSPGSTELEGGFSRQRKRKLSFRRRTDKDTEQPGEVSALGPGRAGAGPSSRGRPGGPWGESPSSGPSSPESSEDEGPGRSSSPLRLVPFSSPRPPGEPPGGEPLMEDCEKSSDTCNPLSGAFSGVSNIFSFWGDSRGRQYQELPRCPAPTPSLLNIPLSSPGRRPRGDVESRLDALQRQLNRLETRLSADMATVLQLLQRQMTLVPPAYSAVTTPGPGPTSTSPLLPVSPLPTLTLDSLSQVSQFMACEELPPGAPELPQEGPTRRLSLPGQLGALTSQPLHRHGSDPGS

SMILES	hERG current change (%, negative = inhibition) at 10uM
COCCNC(=O)COC(=O)CSCc1nc2ccccc2s1	-4.1%
COC(=O)CC1COc2ccccc2N1C(=O)c1cc(OC)c(OC)c(OC)c1 (stereo not drawn)	12.9%
Cc1ccc(NS(=O)(=O)c2ccc(OCC(=O)NCc3cccnc3)cc2)cc1	-12.2%
O=C(O)C1CC(c2ccccc2F)=NO1 (stereo not drawn)	7.89%
CC1(C)Cc2c(ccc3ccccc23)/C(=C/C#N)N1	25.5%
O=C(Nc1ccccc1O)c1ccc2c(c1)C(=O)N(N1C(=O)c3ccccc3C1=O)C2=O	8.54%
c1ccc(-c2cc(-c3ccccc3)[nH]n2)cc1	12.3%
CCSc1nc2ccccc2n1CC(=O)O	22.6%
CC(=O)n1c(=O)c2ccccc2c(=O)n1-c1ccccc1	3.89%
O=C1NC2(Nc3ccccc31)C(=O)Nc1ccc(Br)cc12 (stereo not drawn)	3.15%
CCOc1ccc(C(CC(=O)O)NC(=O)C2c3ccccc3Oc3ccccc32)cc1 (stereo not drawn)	7.42%
CN(C)C(=O)CC12CC3CC(C1)CC(CC(=O)N(C)C)(C3)C2	-6.85%
CCCCCCC(=O)NC(Nc1ccc(S(N)(=O)=O)cc1)C(Cl)(Cl)Cl (stereo not drawn)	-0.328%
C/C=C/c1ccc(OCc2cc(=O)n3cc(C)ccc3n2)c(OC)c1	-26.8%
Cc1ccc(C(=O)N/C(N)=N/c2nc3ccccc3o2)cc1	-2.82%
O=C1Cc2cc([N+](=O)[O-])ccc2N1c1c(Cl)cccc1Cl	-13.9%
N#Cc1ccccc1NC(=O)CSc1nnc(-c2ccccc2O)n1-c1ccccc1	20.9%
O=C(NC1CCN(Cc2ccccc2)CC1)c1ccc(N2CC3CC(C2)c2cccc(=O)n2C3)c([N+](=O)[O-])c1 (stereo not drawn)	18.4%
COc1ccc(C2(C)ON(c3ccccc3C(F)(F)F)C2=O)cc1 (stereo not drawn)	5.36%
COc1ccc2ccc(=O)oc2c1CC=C(C)C	-3.17%
COc1ccc(C(CCNC(C)c2ccccc2)c2ccc(F)cc2)cc1 (stereo not drawn)	-54.6%
S=C(Nc1ccc(Cl)cc1Cl)NC1CCN(Cc2ccccc2)CC1	-2.76%
COc1ccc(CSc2nc3ccccc3c(=O)n2CCCN2CCOCC2)cc1F	-53.4%

SMILES	hERG current change (%, negative = inhibition) at 10uM
Cc1cc2nccc(-c3ccccn3)n2n1	28.3%
CC(/C=N/NC(=O)c1cc(-c2cccs2)[nH]n1)=C\c1ccccc1	11.1%
COc1ccc(NC(=O)CSc2ccc(NC(C)=O)cc2)cc1S(=O)(=O)N1CCCCC1	-0.801%
CCc1ccc(C2=NN(CCC(=O)NC3CC3)C(=O)CC2)cc1	-4.93%
Cc1cc(C)cc(Nc2nc3ccc(C)cc3n3cnnc23)c1	9.39%
Cc1cccc(NC(=O)c2cccc(C(=O)Nc3cccc(C)n3)c2)n1	-32.7%
COC(=O)c1sc(N2C(=O)C(O)=C(C(=O)c3ccc(C)o3)C2c2ccc(OC)c(OC)c2)nc1C (stereo not drawn)	26.9%
Oc1ccc(Br)cc1CNc1nccs1	11.1%
O=C(c1cc2cc([N+](=O)[O-])ccc2oc1=O)N1CCN(c2ncccn2)CC1	-0.285%
Cc1cccn2c(=O)nc(SCC(=O)NC3CCCC3)nc12	7.83%
CCOC(=O)Nc1ccc2c(c1)N(C(=O)OCCN(C)C)c1ccccc1CC2.Cl	-43.2%
CS/C(=C\[N+](=O)[O-])Nc1ccccc1	17.9%
C/C(CC(=O)Nc1ccc(Cl)c(C(F)(F)F)c1)=N\NC(=O)c1cnccn1	-25.8%
COc1cc(C(=O)NCc2ccc3c(c2)OCO3)c([N+](=O)[O-])cc1OC	0.371%
CN(C)CCOC1c2ccccc2CSc2ccccc21.O=CO (stereo not drawn)	-15.8%
O=C1CCCC/C1=C\Nc1ccccc1C(=O)O	3.67%
CCOC(=O)c1oc2ccc(/C=N/O)c(Cl)c2c1C	37.3%
Cc1c(NC(=O)C(C)Sc2n[nH]c(N)n2)c(=O)n(-c2ccccc2)n1C (stereo not drawn)	17%
Cc1nn(C)cc1S(=O)(=O)Nc1ncccn1	17.4%
CCN(CC)S(=O)(=O)c1ccc(NC(=O)COC(=O)c2c[nH]c(=O)[nH]c2=O)cc1	16.4%
O=C1c2cccnc2C(=O)N1Cc1ccc(Cl)cc1	-16.2%
CCN(CC)CCN=Cc1c(O)n(CCC2=CCCCC2)c(=O)[nH]c1=O	-65.6%
Cc1c(Cl)ccc2sc(N3CCN(C(=O)C4=COCCO4)CC3)nc12	-4.45%

SMILES	hERG current change (%, negative = inhibition) at 10uM
O=C(Cc1cccs1)NCc1cccc(Cl)c1	12.3%
NC(=O)c1ccccc1NC(=O)N1CCOCC1	-2.02%
CC(C)(C)NC(=O)C(c1ccncc1)N(Cc1ccco1)C(=O)c1ccc(-c2ccccc2)[nH]1 (stereo not drawn)	19.3%
NC(N)=NS(=O)(=O)c1ccc(N/C=C/C(=O)c2ccc(Cl)c(Cl)c2)cc1	17.3%
CCOC(=O)c1c(C)n(C)c2ccc(OC)c(NC(=O)c3cccs3)c12	-0.453%
C#CCOc1c(Br)cc(/C=C2/C(=O)ON=C2C)cc1OC	18.6%
Cc1nc(N)ncc1-c1ccc2c(c1)OCO2	16.7%
CC1(C)SC2c3ccccc3C(=O)N2[C@@H]1C(=O)NC1CCCC1 (stereo partly drawn)	-12.3%
CCOc1cc(/C=N/Nc2nnc(C)n2N)ccc1O.Cl	24.8%
O=C(CSc1n[nH]c(C2CCCC2)n1)NC1CCCC1	-4.69%
CC(C)n1cc(CN2CCCC(C(=O)Nc3cccc(-c4cc5ccccc5[nH]4)c3)C2)cn1 (stereo not drawn)	-46.3%
N#Cc1sc2nc(C3CC3)cc(-c3ccccc3)c2c1N	3.69%
N#Cc1ccccc1Sc1ccccc1C(=O)OCC(=O)NC12CC3CC(CC(C3)C1)C2	-0.947%
COc1ccc(S(=O)(=O)Nc2ccc(O)c3ccccc23)cc1	-10.2%
CCOC(=O)c1c(NC(=O)c2ccco2)sc2c1CCCC2	4.29%
CN(C)C1=NC[C@H](Cc2ccccc2)N1CCCC1CCCCC1	-70.8%
COc1ccccc1C(=O)NCCC(=O)N1CCN(c2ccccc2Cl)CC1	-13.5%
CCCCc1ccc(NC(=O)CN(C)CC(=O)Nc2ccccc2Cl)cc1	-10.6%
N/C(=N/O)c1nc(N2CCCC2)nc(N(c2ccccc2)c2ccccc2)n1	-3.65%
Cc1csc(SCCn2c(Br)nc3c2c(=O)[nH]c(=O)n3C)n1	-4.31%
COc1ccc2cc(C#N)c(N3CCN(C(=O)c4ccccc4C)CC3)nc2c1	-18.9%
Cc1ccc(S(=O)(=O)N(CC(=O)Nc2cccc([N+](=O)[O-])c2)C2CCCCC2)cc1	4.17%
CC(CC(C)C(=O)Nc1ccccc1C(C)(C)C)C(=O)O (stereo not drawn)	6.12%

SMILES	hERG current change (%, negative = inhibition) at 10uM
CS(=O)(=O)Oc1ccc2c(c1)O/C(=C\c1cccnc1)C2=O	-3.92%
O=C(Nc1cccc(C(F)(F)F)c1)c1cccn(Cc2ccc3c(c2)OC(F)(F)O3)c1=O	2.94%
CCOc1cc(/C=N/NC(=O)C(=O)NCc2cccnc2)ccc1O	-4.7%
CCN(c1ccccc1)S(=O)(=O)c1cccc(C(=O)Nc2ccc(C)cn2)c1	-7.17%
N/C(=N\OC(=O)CCCc1ccccc1)c1ccccc1Cl	2.96%
COc1ccc(S(=O)(=O)NCc2cc(=O)n(C)c(=O)n2C)cc1C	22.6%
COc1ccc(CC(=O)N/N=C(/C)c2ccco2)cc1	-1.8%
Cl.O=C(CCN1CCOCC1)N1c2ccccc2Sc2ccc(Cl)cc21	-14.8%
O=C1C2CC=CCC2C(=O)N1c1ccc(NCCc2ccc(Cl)cc2)c([N+](=O)[O-])c1 (stereo not drawn)	2.1%
O=C(NCc1ccc2c(c1)OCO2)C1COc2ccccc2O1 (stereo not drawn)	-7.41%
COc1ccc(CC(=O)Oc2ccc(Br)cc2F)cc1S(=O)(=O)N1CCOCC1	-33%
O=C(Nc1nc(-c2cccc3ccccc23)cs1)c1ccc2c(c1)S(=O)(=O)c1ccccc1C2=O	7.53%
Cn1c2ccccc2c2cc(C(=O)O)ccc21	6.48%
O=C(O)CSCc1nc2ccccc2s1	14.6%
NNC(=O)c1csc(-c2ccccc2)n1	15%
CCOC(=O)c1c(NC(=O)CCN2CCOCC2)sc(C)c1-c1ccccc1	37.9%
CCOC(=O)C1=C(COC(=O)/C=C/c2ccccc2)NC(=O)NC1C (stereo not drawn)	0.044%
Cc1ccccc1CS(=O)(=O)CCC(=O)NCCCN1CCOCC1	-10.6%
O=C(NC12CC3CC(CC(C3)C1)C2)N1CCN(c2ccccn2)CC1	-6.35%
COc1ccc(-c2nnn(CC(=O)Nc3sc4c(c3C#N)CCCC4)n2)cc1	19.7%
Nc1c(C(=O)O)cnc2nc(N3CCOCC3)nn12	21.7%
